{"source": "PubChem BioAssay AID2546", "about": "(National Center for Advancing Translational Sciences (NCATS), 2010)", "note": "About 11,000 (3.5%) of roughly 310,000 compounds were called active. Inconclusive results, whose numbers are uncertain, are shown with a selection of clear calls. Calls come from the whole dose curve; as a rule, active = well fitted inhibition curve with a large enough effect; inconclusive = small, poorly fitted or top-dose-only effect, or effect the other way; inactive = flat fitted curve, though single readings scatter. Potencies of inconclusive entries are left out as doubtful fits. % is set by controls: 0 for no effect and ±100 for the full control effect; potency is the fitted concentration of half-maximal effect; tags give direction and shape of the fitted curve."}
{"experiment": "VP16 counterscreen qHTS for inhibitors of ROR gamma transcriptional activity;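 note: Gal4-VP16 expression switched on by copper sulfate through the metallothionein promoter; nearly all actives have a fitted effect of over 50% in size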", "settings": "Drosophila S2 Gal4-VP16 UAS-luciferase, luminescence, 20 h; series mostly up to 53.6 µM; activity, negative = inhibition: at the top concentration"}
{"smiles": "O=Cc1cn(CCCOc2ccccc2)c2ccccc12", "Potency": "inconclusive [inhibitor, full curve]"}
{"smiles": "Cc1cccc(N2C(=O)NC(=O)/C(=C/c3ccc([N+](=O)[O-])o3)C2=O)c1", "Potency": "inconclusive [inhibitor, single point]"}
{"smiles": "O=C1NC(=O)C(=Cc2ccc(-c3ccccc3[N+](=O)[O-])o2)C(=O)N1", "Potency": "inconclusive [inhibitor, single point]"}
{"smiles": "C=CCN1CCc2cccc3c2[C@H]1Cc1ccc(O)c(O)c1-3", "Potency": "inconclusive [inhibitor, single point]"}
{"smiles": "CC(C)CNP(=S)(c1ccccc1)C(C)(C)C", "note": "(stereo unspecified)", "Potency": "inconclusive [inhibitor, single point]"}
{"smiles": "C=CCn1c(O)c(C(C)=Nc2cccc(C(=O)O)c2)c(=O)[nH]c1=O", "activity, negative = inhibition": "inactive: 0.465%"}
{"smiles": "O=C1NC(=O)C(=Cc2ccc(-c3ccc(Cl)cc3)o2)C(=O)N1", "Potency": "inconclusive [inhibitor, single point]"}
{"smiles": "CC(Cc1ccccc1Sc1ccccc1O)N(C)C", "note": "(stereo unspecified)", "activity, negative = inhibition": "inactive: -4.74%"}
{"smiles": "N[C@H](C(=O)O)c1cc(=O)[nH]o1", "activity, negative = inhibition": "inactive: -10.3%"}
{"smiles": "COC(=O)Nc1ccc(N=C(N)N[N+](=O)[O-])cc1", "activity, negative = inhibition": "inactive: -1.67%"}
{"smiles": "COC(=O)[C@]1(C)CC[C@@]2(C)CC[C@@]3(C)C4=CCc5c(cc(O)c(O)c5C)[C@]4(C)CC[C@@]3(C)C2C1", "note": "(stereo partly specified)", "Potency": "active: 15.8 µM"}
{"smiles": "COc1cc(N2CCOCC2)ccc1C=C1C(=O)NC(=O)NC1=O", "Potency": "inconclusive [inhibitor, full curve]"}
{"smiles": "O=c1c2ccccc2[nH]c(=S)n1-c1ccc(Br)cc1", "Potency": "active: 1.41 µM"}
{"smiles": "Nc1c(C(=O)NCCCc2ccccc2)c2nc3ccccc3nc2n1Cc1cccs1", "Potency": "inconclusive [inhibitor, single point]"}
{"smiles": "CN1C(=O)CCS(=O)(=O)[C@H]1c1ccc(Cl)cc1", "activity, negative = inhibition": "inactive: -4.36%"}
{"smiles": "O=C(Nc1cccc(F)c1)N1CCC2(CC1)CCN(C(=O)Oc1ccccc1)CC2", "Potency": "inconclusive [inhibitor, single point]"}
{"smiles": "COc1ccc(C(C)=O)cc1CN1CC=C(c2ccccc2)CC1", "activity, negative = inhibition": "inactive: 2.06%"}
{"smiles": "COc1ccc(-n2c(O)c(C(C)=NCCCn3ccnc3)c(=O)[nH]c2=O)cc1", "activity, negative = inhibition": "inactive: -7.24%"}
{"smiles": "[CH3][Hg][Cl]", "Potency": "active: 0.708 µM"}
{"smiles": "CCOC(=O)C1=C(C)OC(N)=C(C(=O)OCC)C12C(=O)Nc1ccc(Br)cc12", "note": "(stereo unspecified)", "Potency": "inconclusive [inhibitor, single point]"}
{"smiles": "CCC/C=C/C=C/C(=O)OC1/C(=C/C(=O)OC)CC2CC(C(C)O)OC(=O)CC(O)CC3CC(OC(C)=O)C(C)(C)C(O)(CC4C/C(=C/C(=O)OC)CC(/C=C\\C(C)(C)C1(O)O2)O4)O3", "note": "(stereo unspecified)", "activity, negative = inhibition": "inactive: -28.7%"}
{"smiles": "CCCCCCCCCc1ccc(OCCOCCOCCOCCOCCOCCOCCOCCOCCO)cc1", "Potency": "inconclusive [inhibitor, single point]"}
{"smiles": "CC(=O)Oc1ccc(/C=C/c2cc(OC(C)=O)cc(OC(C)=O)c2)cc1", "Potency": "inconclusive [inhibitor, partial curve]"}
{"smiles": "CCOC(=O)C1CCN(/C=C2/C(=O)NC(=O)N(Cc3ccco3)C2=O)CC1", "activity, negative = inhibition": "inactive: -3.13%"}
{"smiles": "COc1cc(CN2CCN(C(=O)COc3ccccc3)CC2)cc(OC)c1OC", "activity, negative = inhibition": "inactive: -0.192%"}
{"smiles": "CCCC/C(C)=C/[C@@H](NP(=O)(c1ccccc1)c1ccccc1)c1ccccc1", "Potency": "inconclusive [inhibitor, single point]"}
{"smiles": "CCOP(=O)(OCC)C1(O)C(=O)Nc2ccc(Br)cc21", "note": "(stereo unspecified)", "Potency": "inconclusive [inhibitor, partial curve]"}
{"smiles": "Cc1ccc2nc(-c3ccncc3)cc(C(=O)N3CCC4(CC3)OCCO4)c2c1", "activity, negative = inhibition": "inactive: 3.01%"}
{"smiles": "O=C(N/N=C/c1c(O)n(CCc2ccccc2)c(=O)[nH]c1=O)c1ccncc1", "activity, negative = inhibition": "inactive: -5.27%"}
{"smiles": "CCCCn1c(=O)c(C(=O)NC(C)c2ccccc2)c(O)c2ccccc21", "note": "(stereo unspecified)", "Potency": "inconclusive [inhibitor, single point]"}
{"smiles": "CC(C)(C)c1ccc(C(=O)NC(=S)Nn2cnnc2)cc1", "Potency": "inconclusive [inhibitor, single point]"}
{"smiles": "CCCCCc1cc(O)c2c(c1)OC(C)(C)C1CC=C(C)CC21", "note": "(stereo unspecified)", "Potency": "inconclusive [inhibitor, single point]"}
{"smiles": "C=C1C(=O)O[C@@H]2C[C@@H](C)[C@@H]3C=CC(=O)[C@@]3(C)[C@@H](O)[C@H]12", "Potency": "active: 3.16 µM"}
{"smiles": "CN(C)C[C@H]1CCCC[C@]1(O)c1cccc(O)c1", "activity, negative = inhibition": "inactive: -7.52%"}
{"smiles": "CCOC(=O)c1c(NC(=O)C(c2ccccc2)c2ccccc2)sc2c1C1CCN2CC1", "Potency": "inconclusive [inhibitor, single point]"}
{"smiles": "CC[C@]1(O)C(=O)OCc2c1cc1n(c2=O)Cc2cc3ccccc3nc2-1", "Potency": "inconclusive [inhibitor, full curve]"}
